# Assay results published in publication PMC12135187, “A role for pH dynamics regulating transcription factor DNA-binding selectivity”.
# The list shows a part of the results.
# Molecular target: T1, FOXC2 DBD WT (UniProt Q99958 72-172)
# T1 sequence: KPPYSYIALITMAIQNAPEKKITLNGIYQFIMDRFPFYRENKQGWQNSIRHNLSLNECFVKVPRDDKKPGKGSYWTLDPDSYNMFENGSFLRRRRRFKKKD
# Test: SELEX-seq (GST pull-down, four rounds, 16-nt random library); pH 7.0; 20 mM HEPES, 140 mM KCl, 0.05 mM TCEP-HCl, pH 7.0, room temperature, 30 min; 2.5 uM GST-FOXC2 DBD, 0.25 uM DNA library; high values mean tight binding
# Settings: protein: recombinant; tags: N-terminal GST (pGEX-6P-2); dsDNA, one strand shown
# Procedure, shortened: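 GST-tagged FOXC2 DNA-binding domain (E. coli-expressed, glutathione-purified) was incubated with a DNA library carrying a 16 bp randomized region, at 0.25 μM DNA and 2.5 μM protein, for 30 min at RT in 20 mM HEPES, 140 mM KCl, 0.05 mM TCEP–HCl, pH 7. Complexes were captured on glutathione Sepharose beads, washed, heat-eluted and PCR-amplified over four rounds. Initial and selected libraries were Illumina MiniSeq sequenced. Relative enrichment came from the Bioconductor SELEX R package.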
row,Sequence,binding signal [relative enrichment]
1,AATGAA,0.36
2,ACTCAG,0.492
3,ATTTTA,0.263
4,CCCATA,0.344
5,ATATGG,0.339
6,ATCAAG,0.369
7,AAGAAA,0.396
8,CACCTA,0.417
9,AAGCAC,0.477
10,CAATTG,0.24
11,AAAGCA,0.341
12,GTACTA,0.465
13,ATCATA,0.38
14,ACACAG,0.297
15,CTCCAT,0.483
16,ACTTTC,0.481
17,AGGATA,0.311
18,ATAATC,0.482
19,ACTTCT,0.502
20,TTCCTT,0.344
21,CTCTTA,0.325
22,TACTCA,0.389
23,AAATGC,0.33
24,TCCTAA,0.348
25,CACATG,0.281

row,Sequence,binding signal [relative enrichment]
1,TACCGT,0.442
2,CTATAA,0.283
3,GATTAA,0.448
4,CATGTC,0.418
5,AACGCC,0.493
6,ACTTAG,0.415
7,GGTATA,0.303
8,TCACAA,0.332
9,CTATCT,0.402
10,CCGTAA,0.415
11,ATCATC,0.492
12,TTTCTC,0.368
13,AATTTC,0.416
14,AACAAC,0.24
15,TAATAA,0.399
16,TGTCCA,0.348
17,AGAATG,0.543
18,CGTGTA,0.412
19,TATAGA,0.295
20,ACAGGA,0.332
21,GATTAC,0.363
22,AACGGA,0.309
23,ATGCAT,0.421
24,TAACCC,0.318
25,CAAATC,0.3

row,Sequence,binding signal [relative enrichment]
1,TAAAAA,0.261
2,AAATCC,0.354
3,ACAAAT,0.442
4,AAATGA,0.271
5,ATTATC,0.317
6,CTAAAC,0.375
7,AACTAT,0.324
8,GTTTTA,0.241
9,AAATAA,0.891
10,CATCCT,0.605
11,CCATCA,0.645
12,TGATCA,0.457
13,TTCCTG,0.394
14,AACGTC,0.372
15,TAGACA,0.44
16,CAAACG,0.325
17,ACGTCT,0.549
18,ATTGCA,0.322
19,CAATTA,0.295
20,CTTAAG,0.341
21,AAACCA,0.353
22,CCCAAA,0.472
23,AATCTC,0.43
24,GATGCT,0.63
25,CGTAAA,0.481

row,Sequence,binding signal [relative enrichment]
1,AATAAA,0.839
2,ATAGAC,0.461
3,AACAGT,0.313
4,CCTATG,0.396
5,GATTGC,0.423
6,AACGTA,0.337
7,CCAACT,0.341
8,CTACAA,0.352
9,CCTACT,0.648
10,ATACCC,0.549
11,CTTAGA,0.52
12,GATTTA,0.323
13,ACTCCA,0.477
14,AGCATG,0.514
15,AGATAT,0.386
16,CTATGA,0.45
17,AAAAGA,0.251
18,CTTCTT,0.546
19,ATATCC,0.317
20,ATCCTA,0.563
21,ACATAG,0.364
22,GTCATA,0.306
23,ACAATA,0.351
24,CCATAA,0.412
25,TAGTCA,0.442

row,Sequence,binding signal [relative enrichment]
1,ATTAGA,0.372
2,AAAACA,0.264
3,TACCAA,0.41
4,ATGTGA,0.334
5,GCAAAA,0.207
6,ATGTAA,0.258
7,ATGTTA,0.428
8,TCCACA,0.483
9,ATCGAA,0.405
10,AAAGTT,0.3
11,ACACCC,0.429
12,TCGGTT,0.326
13,ATGACA,0.288
14,CTTCTA,0.588
15,ATTCTA,0.466
16,AAACCT,0.289
17,AGGTTA,0.238
18,AAGTTA,0.225
19,CAAAGA,0.341
20,TTCCAA,0.344
21,AGTCAT,0.491
22,TCCTTT,0.307
23,CCTCTG,0.61
24,ACTATC,0.412
25,CGATTA,0.41

row,Sequence,binding signal [relative enrichment]
1,AGTTCA,0.419
2,AGTCAA,0.416
3,GCCAAA,0.402
4,TGAACA,0.291
5,AACTTC,0.432
6,CAAGCA,0.489
7,AAATGT,0.266
8,ACGACT,0.561
9,ACACAC,0.34
10,CAACGA,0.38
11,ATACAT,0.349
12,ATCCAT,0.477
13,ATTACG,0.417
14,CACCTG,0.535
15,AAATGG,0.353
16,AAACAA,0.46
17,CTATTA,0.334
18,TTATAA,0.214
19,CTTTCA,0.425
20,ACAAGC,0.428
21,TATCCC,0.399
22,AATATT,0.661
23,TGGTAA,0.428
24,ACTGCA,0.407
25,ATCTTG,0.318

row,Sequence,binding signal [relative enrichment]
1,AACTGC,0.311
2,ATACTG,0.315
3,ACATGC,0.453
4,TACTAA,0.382
5,CCAATA,0.297
6,AGTATG,0.448
7,CTTTAC,0.315
8,ATGATA,0.355
9,ACACAT,0.268
10,CAACTG,0.279
11,ACAGAC,0.349
12,CTTACT,0.518
13,ACACTA,0.332
14,CATACA,0.446
15,CGTATA,0.282
16,AAATAC,0.444
17,AACCTC,0.374
18,ACACCG,0.516
19,ATAGTC,0.461
20,AACGAT,0.256
21,AACACA,0.372
22,CACCTT,0.48
23,ATCCAC,0.528
24,AGTCTA,0.54
25,ACAACC,0.38

row,Sequence,binding signal [relative enrichment]
1,ACCGCT,0.499
2,AACAGC,0.298
3,GGAAAA,0.325
4,CAACAC,0.329
5,AAATAT,0.435
6,AGATTG,0.338
7,CTTAAA,0.401
8,CTATTC,0.423
9,AACACT,0.324
10,AGCACA,0.277
11,GCAAAC,0.376
12,ATATAG,0.231
13,ACAGAT,0.325
14,ACTCTG,0.394
15,ACCAAT,0.297
16,GTAACA,0.311
17,AGCCTT,0.351
18,ATAAAG,0.295
19,AAGCGT,0.342
20,AACCAG,0.382
21,GCAATA,0.37
22,AATCCC,0.452
23,CTTACG,0.579
24,TATCTC,0.531
25,CTAACA,0.376

row,Sequence,binding signal [relative enrichment]
1,ATATCA,0.285
2,ATCTAG,0.559
3,GAATCA,0.552
4,ATCTCT,0.485
5,CCCATT,0.378
6,CATATA,0.261
7,ATTACC,0.418
8,AATCGC,0.406
9,CTCACA,0.358
10,CCTTTT,0.486
11,AATAGC,0.349
12,AAGTTC,0.33
13,AGTAAC,0.341
14,AAAACG,0.293
15,CCACTT,0.6
16,AACGCA,0.299
17,CTACTG,0.62
18,AAACAG,0.495
19,GTTTGA,0.342
20,AACCCC,0.411
21,CATTAG,0.407
22,ATTCTC,0.416
23,CTTATA,0.265
24,ATCTAA,0.397
25,AACCGC,0.458

row,Sequence,binding signal [relative enrichment]
1,ACCTCA,0.455
2,CTCGTT,0.356
3,TAGAAA,0.294
4,AGCAAA,0.434
5,AATGTC,0.314
6,TAGATA,0.349
7,ACATTA,0.277
8,GTACAC,0.467
9,ATTGTA,0.324
10,CAACTC,0.262
11,ACACAA,0.35
12,CATCAC,0.536
13,CTGCAA,0.304
14,CGACAA,0.388
15,ATTTCC,0.389
16,GCTATA,0.243
17,TCTTCA,0.58
18,ATAGAG,0.433
19,CAGTTA,0.307
20,ACTCCT,0.417
21,CATTGA,0.325
22,CAAGAA,0.359
23,TGACAA,0.337
24,TACAGC,0.344
25,ACAGTC,0.418
